The full ranking holds about 33,000 sequences; the median of “E-score (-0.5 to 0.5)” is about -0.041, and the highest 2% start at about 0.37. The list shows a part of the results.
Biological target: T1, Ecm22 (UniProt Q05958)
T1 sequence: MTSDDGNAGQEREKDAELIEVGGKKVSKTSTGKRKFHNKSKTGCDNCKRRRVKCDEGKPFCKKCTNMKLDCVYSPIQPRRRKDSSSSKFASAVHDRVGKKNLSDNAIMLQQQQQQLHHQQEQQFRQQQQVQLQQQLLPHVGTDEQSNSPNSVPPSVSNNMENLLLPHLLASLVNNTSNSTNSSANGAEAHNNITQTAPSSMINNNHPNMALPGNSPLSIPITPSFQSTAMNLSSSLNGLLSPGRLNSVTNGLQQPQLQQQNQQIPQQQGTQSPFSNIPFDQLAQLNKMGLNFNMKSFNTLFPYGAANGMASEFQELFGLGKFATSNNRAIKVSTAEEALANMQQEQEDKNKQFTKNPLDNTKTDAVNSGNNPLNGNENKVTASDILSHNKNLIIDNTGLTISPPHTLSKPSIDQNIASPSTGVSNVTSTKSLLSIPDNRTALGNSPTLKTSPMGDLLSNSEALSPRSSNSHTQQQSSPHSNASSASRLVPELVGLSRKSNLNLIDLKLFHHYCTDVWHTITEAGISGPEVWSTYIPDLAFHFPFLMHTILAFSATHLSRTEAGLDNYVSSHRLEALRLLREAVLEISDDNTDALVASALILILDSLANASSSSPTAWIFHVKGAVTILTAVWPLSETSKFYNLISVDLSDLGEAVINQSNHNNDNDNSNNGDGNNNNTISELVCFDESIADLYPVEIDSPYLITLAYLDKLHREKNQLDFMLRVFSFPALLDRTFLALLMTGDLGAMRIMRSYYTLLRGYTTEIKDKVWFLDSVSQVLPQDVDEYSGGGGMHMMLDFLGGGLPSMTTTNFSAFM
Assay: PBM E-score (8-mer binding enrichment) (E-score (-0.5 to 0.5)); higher = stronger / more preferred TF binding; most listed sequences are background and not binding sites
Settings: protein concentration: 200 nM; construct: GST-full length
Summary of the method: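 Detection of bound protein used fluorescent anti-GST, with scans normalised by masliner. The proteins were GST-tagged yeast transcription factors applied at about 100-200 nM to universal all-10-mer Agilent arrays made double-stranded by primer extension. Each ungapped eight-base word, pooled with its reverse complement, was scored with an E-score from the Universal PBM Analysis Suite.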

Sequence | PBM E-score
ATCTACAG | -0.142
CAATGTGA | -0.127
GAGCTCAC | -0.0272
AGAGATGC | -0.0736
ATGTCCAG | -0.0894
ATCCGGAT | -0.0213
ATCCGGTA | 0.131
AGAATTTC | 0.0483
GGATCGAC | 0.0502
ACCGTACG | 0.385
ACAACCCT | 0.0246
ATTTGAAA | -0.0418
ACATCAAA | -0.0956
CCAAAGGA | -0.169
CCAGGTAG | -0.235
CAGTCCAC | -0.229
ATCAGGAT | 0.201
CTTCAAAG | -0.128
ATGTACAG | -0.0973
GCTTATCC | 0.0216
CAATTCGA | 0.0138
CGACGTAG | 0.0865

Sequence | PBM E-score
CAGTTTTA | -0.181
ACTAAAGA | -0.0113
ACCCTAGA | -0.0449
CGTGAGGA | -0.134
ACTCAACA | -0.109
GGACCGCA | -0.00768
AGACGCAG | -0.0192
CTTACCGC | 0.027
CTACCAAC | 0.0568
AGTTACCC | 0.0506
GCCAATGA | -0.193
GACGCTGC | -0.121
AACTCCTA | -0.059
AGATATTG | -0.149
GAGGACTC | -0.139
CCGTTTGC | 0.212
CAAGGCAC | -0.123
GTAGTTCA | -0.0814
CCCCGGGC | -0.274
CTGTGGAC | -0.295
TATAAGCA | 0.0538
GTACCTGA | 0.149

Sequence | PBM E-score
AAGCACTG | 0.0316
AATATGCT | 0.019
ACGAATCA | 0.302
CGGCCATC | -0.22
CAATCCTC | -0.148
TAATGTGA | -0.00382
ATGGAGCC | -0.206
AGAAGTTG | -0.00704
AGTGGGGG | -0.368
CACCGGCG | -0.0848
AATACTGT | 0.158
AACCTGAT | -0.0867
AATATAAG | 0.0324
CCAGCTTA | -0.123
GGCAGAGA | -0.119
TGACGCAA | -0.215
AACTGCAT | -0.00243
ATTTTGCG | 0.193
CCGTCGAG | 0.00911
GCGCCCCC | -0.25
AAATAATT | 0.00596
AAGGGTTA | -0.0464

Sequence | PBM E-score
AGTAAAAA | -0.142
GCTCTGTA | -0.0048
AGTAGGGA | -0.121
CTACGCTC | -0.114
ATCTCCTC | -0.0702
AATATTCC | -0.0245
AATGAACC | -0.208
ACCACCGT | 0.267
ACGGGGGG | 0.0925
AGCCTCAC | -0.175
CGGCGCAC | -0.0575
CCGAATGA | 0.191
ATGCGCAT | 0.027
AATAGTAC | 0.284
CGATGAGC | 0.0666
ATCGGGCG | -0.141
CGTTTGAA | 0.275
CGTACGAG | 0.473
GCGTGAAC | 0.183
CTATGAAG | -0.125
